Laboratory results as given in a compilation of properties of binary mixtures (doi:10.1016/j.jct.2008.10.019).
The densities may have been worked out from excess volumes.

Assay: xn = mol fraction of the nth substance listed
Conditions: 100 kPa

CCOS(=O)(=O)[O-].CC[n+]1ccn(C)c1 + CO
mass density [kg/m3]
Conditions	x1 = 0.0338	x1 = 0.0353	x1 = 0.1229	x1 = 0.1234	x1 = 0.2522	x1 = 0.3582	x1 = 0.4449	x1 = 0.4707	x1 = 0.5619	x1 = 0.5665
298.15 K	858.3	860.1	979.5	979.8	1075.7	1123.2	1151	1157.9	1178.7	1179.4
303.15 K	853.7	855.6	975.3	975.6	–	–	–	1154.2	1174.7	1175.5
313.15 K	845.1	847.2	967.2	–	–	1111.7	1140.6	–	–	–
